{"source": "paper PMC4336329", "about": "(PLoS ONE, 2015)", "note": "Screen size: about 310,000 compounds; about 2,200 (0.71%) showed an effect of 50% or more. The effect is printed as a negative number. The list shows a part of the results.", "data": [{"molecular_target": "human ether-à-go-go-related gene (hERG) potassium channel (human, UniProt Q12809)", "sequence (Q12809 whole entry, looked up)": "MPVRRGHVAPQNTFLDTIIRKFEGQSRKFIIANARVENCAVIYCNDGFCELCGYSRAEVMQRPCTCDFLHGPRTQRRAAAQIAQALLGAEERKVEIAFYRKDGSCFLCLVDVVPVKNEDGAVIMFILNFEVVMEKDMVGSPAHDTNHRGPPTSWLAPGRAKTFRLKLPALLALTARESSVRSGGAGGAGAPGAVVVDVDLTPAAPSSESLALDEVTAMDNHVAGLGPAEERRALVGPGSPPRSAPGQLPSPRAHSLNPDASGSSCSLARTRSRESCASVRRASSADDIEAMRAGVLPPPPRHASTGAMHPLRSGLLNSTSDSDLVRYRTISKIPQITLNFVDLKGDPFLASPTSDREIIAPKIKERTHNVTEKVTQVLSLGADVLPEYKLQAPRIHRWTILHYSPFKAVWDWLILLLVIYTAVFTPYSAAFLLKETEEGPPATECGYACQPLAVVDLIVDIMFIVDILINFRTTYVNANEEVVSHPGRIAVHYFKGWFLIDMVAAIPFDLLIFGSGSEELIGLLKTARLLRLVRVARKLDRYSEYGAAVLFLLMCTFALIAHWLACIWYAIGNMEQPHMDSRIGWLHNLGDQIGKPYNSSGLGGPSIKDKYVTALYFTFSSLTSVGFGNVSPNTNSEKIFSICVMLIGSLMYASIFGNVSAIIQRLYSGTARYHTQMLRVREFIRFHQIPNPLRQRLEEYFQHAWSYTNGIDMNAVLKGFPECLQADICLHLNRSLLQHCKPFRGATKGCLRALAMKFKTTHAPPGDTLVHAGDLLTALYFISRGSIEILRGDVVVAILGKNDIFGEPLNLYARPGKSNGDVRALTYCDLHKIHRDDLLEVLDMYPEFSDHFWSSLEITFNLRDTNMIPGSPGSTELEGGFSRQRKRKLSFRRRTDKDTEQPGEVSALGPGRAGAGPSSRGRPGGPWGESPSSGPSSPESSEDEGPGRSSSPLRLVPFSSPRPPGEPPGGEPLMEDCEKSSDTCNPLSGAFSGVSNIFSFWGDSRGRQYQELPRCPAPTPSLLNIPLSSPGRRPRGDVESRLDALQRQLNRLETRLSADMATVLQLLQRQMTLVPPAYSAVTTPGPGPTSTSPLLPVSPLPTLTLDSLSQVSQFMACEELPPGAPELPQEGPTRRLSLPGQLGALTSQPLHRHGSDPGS", "test": "primary screen, population patch clamp on CHO cells stably expressing hERG", "units": {"hERG current change (%, negative = inhibition) at 1uM": "%"}, "values": [{"smiles": "C=CCNC(=O)C1CCN(c2ccc(S(=O)(=O)N3CCOCC3)cc2Cl)CC1", "hERG current change (%, negative = inhibition) at 1uM": 9.31}, {"smiles": "Cc1ccc(S(=O)(=O)N(CC(=O)NCc2ccco2)c2ccccc2C)cc1", "hERG current change (%, negative = inhibition) at 1uM": 3.62}, {"smiles": "COc1ccc(-n2cc(CN3CCCC3)c(-c3cccc(F)c3)n2)cc1", "hERG current change (%, negative = inhibition) at 1uM": -9.53}, {"smiles": "CC(C)c1ccc(C2CC(=O)N3CN(Cc4ccco4)CSC3=C2C#N)cc1", "note": "(stereo not drawn)", "hERG current change (%, negative = inhibition) at 1uM": 12.2}, {"smiles": "O=C(O)c1ccc(CN2CCOCC2)o1", "hERG current change (%, negative = inhibition) at 1uM": 10.8}, {"smiles": "Cc1ccc(-n2nc(C)c3c(C)c(CCC(=O)Nc4ccc(CN5CCCC5)cc4)c(C)nc32)cc1", "hERG current change (%, negative = inhibition) at 1uM": 5.31}, {"smiles": "Cc1ccc2cc(CNCCc3ccccc3C)c(=O)[nH]c2c1", "hERG current change (%, negative = inhibition) at 1uM": -42.9}, {"smiles": "CN(/C=C/c1c([N+](=O)[O-])c(=O)n(C)c(=O)n1C)c1ccccc1", "hERG current change (%, negative = inhibition) at 1uM": 0.465}, {"smiles": "CN1CCc2c(sc(NC(=O)c3ccc4ccccc4c3)c2C(N)=O)C1.Cl", "hERG current change (%, negative = inhibition) at 1uM": 13.8}, {"smiles": "O=C(Nc1ccccc1N1CCOCC1)C1CCCCN1S(=O)(=O)c1ccccc1", "note": "(stereo not drawn)", "hERG current change (%, negative = inhibition) at 1uM": 2.67}, {"smiles": "CCCNC(=O)Nc1cc(S(=O)(=O)CC)ccc1O", "hERG current change (%, negative = inhibition) at 1uM": 7.34}, {"smiles": "c1ccc(-c2noc(CN3CCOCC3)n2)cc1", "hERG current change (%, negative = inhibition) at 1uM": 21.6}, {"smiles": "CN(CC(=O)Nc1ccc(F)cc1)C(=O)CSc1ncccn1", "hERG current change (%, negative = inhibition) at 1uM": 14.2}, {"smiles": "COC(=O)COc1ccc(/C=N/NC(=O)c2ccc(N(Cc3ccccc3)S(C)(=O)=O)cc2)cc1", "hERG current change (%, negative = inhibition) at 1uM": 2.93}, {"smiles": "CCOc1ccc(N2C(=O)CC(C(C)c3ccccc3)C2=O)cc1", "note": "(stereo not drawn)", "hERG current change (%, negative = inhibition) at 1uM": -4.13}, {"smiles": "Nc1ccc(Oc2ccccc2F)nc1", "hERG current change (%, negative = inhibition) at 1uM": 14.9}, {"smiles": "CC(C)(CO)NCc1cc(Br)ccc1OCc1ccccc1.Cl", "hERG current change (%, negative = inhibition) at 1uM": 0.0619}, {"smiles": "O=C(CN1C(=O)NC2(CCCc3ccccc32)C1=O)N1CCN(c2cccc(C(F)(F)F)c2)CC1", "note": "(stereo not drawn)", "hERG current change (%, negative = inhibition) at 1uM": 2.72}, {"smiles": "Cc1nnc(SCC(=O)Nc2cccc(C(F)(F)F)c2)n1Cc1ccco1", "hERG current change (%, negative = inhibition) at 1uM": -2.42}, {"smiles": "COc1ccc(S(=O)(=O)N2CN3CCN(C3)C2)cc1OC", "hERG current change (%, negative = inhibition) at 1uM": 6.62}, {"smiles": "CS(=O)(=O)c1nc(S(=O)(=O)c2ccc(Cl)cc2)c(NCCCn2ccnc2)s1", "hERG current change (%, negative = inhibition) at 1uM": 15}, {"smiles": "CCC1=C([N+](=O)[O-])C(c2ccc3c(c2)OCO3)NC(=O)N1", "note": "(stereo not drawn)", "hERG current change (%, negative = inhibition) at 1uM": 14.7}, {"smiles": "CC(=N\\Nc1ccc(Cl)cc1)/C(=N/O)C(=O)Nc1ccccc1", "hERG current change (%, negative = inhibition) at 1uM": 9.45}, {"smiles": "Cc1ccccc1COc1ccc2oc(C)c(C(=O)O)c2c1", "hERG current change (%, negative = inhibition) at 1uM": 14.7}, {"smiles": "CSc1ccccc1NC(=O)Cn1c(-c2cscn2)nc2ccccc21", "hERG current change (%, negative = inhibition) at 1uM": 6.15}, {"smiles": "O=C(Nc1cccc(S(=O)(=O)N2CCCCCC2)c1)c1ccc2ccccc2n1", "hERG current change (%, negative = inhibition) at 1uM": 5.96}, {"smiles": "COc1ccc(C)cc1NC(=O)CN(c1ccccc1F)S(C)(=O)=O", "hERG current change (%, negative = inhibition) at 1uM": 8.8}, {"smiles": "O=S(=O)(c1ccc(F)c2ccccc12)N1CCCCC1", "hERG current change (%, negative = inhibition) at 1uM": 7.14}, {"smiles": "CCN1CCN(S(=O)(=O)c2ccc(Oc3ccccc3OC)cc2)CC1", "hERG current change (%, negative = inhibition) at 1uM": -2.12}, {"smiles": "CCSCCOC(=O)C1=C(C)NC(=O)NC1c1ccc2c(c1)OCO2", "note": "(stereo not drawn)", "hERG current change (%, negative = inhibition) at 1uM": -2.24}, {"smiles": "Cc1cc(C)n(CC(=O)N2CCCC(C(=O)c3cccc(OC(C)C)c3)C2)n1", "note": "(stereo not drawn)", "hERG current change (%, negative = inhibition) at 1uM": -3.09}, {"smiles": "Cc1cccc(N(Cc2ccccc2F)S(C)(=O)=O)c1", "hERG current change (%, negative = inhibition) at 1uM": 7.42}, {"smiles": "COc1ccc(-n2c(=O)[nH]cc(C(=O)Nc3ccccc3)c2=O)cc1", "hERG current change (%, negative = inhibition) at 1uM": 8.48}, {"smiles": "Cc1nn(-c2ccccc2)c(C)c1/C=N/O", "hERG current change (%, negative = inhibition) at 1uM": 11.4}, {"smiles": "COc1cccc(NC(=O)CN(C)CC(=O)Nc2ccc(C)cc2Cl)c1", "hERG current change (%, negative = inhibition) at 1uM": 12.8}, {"smiles": "Cc1ccc(CSCCNC(=O)CN(c2cccc([N+](=O)[O-])c2)S(C)(=O)=O)cc1", "hERG current change (%, negative = inhibition) at 1uM": -10.3}, {"smiles": "COC(=O)c1ccc(C2/C(=C(/O)c3ccc(OC)cc3)C(=O)C(=O)N2c2cc(C)on2)cc1", "note": "(stereo not drawn)", "hERG current change (%, negative = inhibition) at 1uM": 6.75}, {"smiles": "CC(=O)Nc1ccc(NS(=O)(=O)c2ccc(C)cc2)c([N+](=O)[O-])c1", "hERG current change (%, negative = inhibition) at 1uM": -20.5}, {"smiles": "Cc1ccc(S(=O)(=O)N(C)c2ccc(OCC(=O)N3CCCCC3)cc2)cc1", "hERG current change (%, negative = inhibition) at 1uM": 7.49}, {"smiles": "CCNCCC(CCC(C)C)c1ccc2c(c1)OCO2", "note": "(stereo not drawn)", "hERG current change (%, negative = inhibition) at 1uM": -64.3}, {"smiles": "COc1ccc(-n2c(-c3ccccc3[N+](=O)[O-])nc3ccccc3c2=O)cc1", "hERG current change (%, negative = inhibition) at 1uM": 0.235}, {"smiles": "CCc1ccc(N2CC(C(=O)OCC(=O)Nc3ccc(C#N)cc3)CC2=O)cc1", "note": "(stereo not drawn)", "hERG current change (%, negative = inhibition) at 1uM": -25.3}, {"smiles": "O=C1SC(SCc2ccccc2Cl)=N/C1=C\\c1ccc(C(=O)O)cc1", "hERG current change (%, negative = inhibition) at 1uM": 8.26}, {"smiles": "CCOC(=O)CC(=O)CSc1nc2ccc(OC)cc2cc1C", "hERG current change (%, negative = inhibition) at 1uM": 12.6}, {"smiles": "O=C(c1cc(-c2ccncc2)nc2ccc(Cl)cc12)N1CCN(C(=O)C2CCCO2)CC1", "note": "(stereo not drawn)", "hERG current change (%, negative = inhibition) at 1uM": 4.95}, {"smiles": "CCCCC(=O)Nc1nnc(C2=COCCO2)o1", "hERG current change (%, negative = inhibition) at 1uM": 11.2}, {"smiles": "S=C(NCc1cccs1)Nc1ccc(Br)cc1Cl", "hERG current change (%, negative = inhibition) at 1uM": 11.5}, {"smiles": "O=C(CCS(=O)(=O)c1ccccc1)Nc1ccc2c(c1)OCO2", "hERG current change (%, negative = inhibition) at 1uM": 7.88}, {"smiles": "CC1Cc2ccccc2N1C(=O)CSc1nnnn1C1CCCC1", "note": "(stereo not drawn)", "hERG current change (%, negative = inhibition) at 1uM": -5.89}, {"smiles": "O=S(=O)(NCCN1CCOCC1)c1cc(Cl)ccc1Cl", "hERG current change (%, negative = inhibition) at 1uM": 11.3}, {"smiles": "Cc1nc(-c2cccnc2)sc1C(=O)N/N=C/c1ccccc1Cl", "hERG current change (%, negative = inhibition) at 1uM": 1.54}, {"smiles": "OC(CN1CC=C(c2ccccc2)CC1)c1ccccc1", "note": "(stereo not drawn)", "hERG current change (%, negative = inhibition) at 1uM": 7.39}, {"smiles": "CS(=O)(=O)c1ccc(Cl)c(NC(=O)CCl)c1", "hERG current change (%, negative = inhibition) at 1uM": 19.7}, {"smiles": "CCOc1ccc(/C=C/C(=O)N(CC)CC(=O)NCc2cccs2)cc1OC", "hERG current change (%, negative = inhibition) at 1uM": 7.65}, {"smiles": "NC(=S)Nc1ccc(Cl)cc1Cl", "hERG current change (%, negative = inhibition) at 1uM": 12.3}, {"smiles": "Cc1cc(N2CCN(c3ccccc3)CC2)n2c(n1)nc1ccccc12", "hERG current change (%, negative = inhibition) at 1uM": -42}, {"smiles": "CN1CCN(c2ccc(NC(=O)CSc3ccccc3)cc2F)CC1", "hERG current change (%, negative = inhibition) at 1uM": -35.3}]}]}
